In the supplement of paper PMC3334620:
In all, about 33,000 sequences were measured (“E-score (-0.5 to 0.5)”: median about -0.016, highest 2% from about 0.31 on). This is one part of the list.

What follows are sequences tested against Cst6 (UniProt P40535) (assay: PBM E-score (8-mer binding enrichment) (E-score (-0.5 to 0.5)); higher = stronger / more preferred TF binding; most listed sequences are background and not binding sites). Details: protein concentration: 200 nM; construct: GST-DNA-binding domain.
In short: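 Using PURExpress in vitro transcription/translation, GST-tagged yeast transcription factors were made in full-length or DNA-binding-domain form. These were applied at about 100-200 nM to double-stranded universal all-10-mer Agilent arrays, and bound protein was detected with fluorescent anti-GST. Scans were normalised with masliner before the Universal PBM Analysis Suite assigned E-scores to ungapped eight-base words pooled with their reverse complements.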

Row | Sequence | PBM E-score
1 | GTCTAAAC | 0.0407
2 | TTCGTCAA | 0.183
3 | AAGAACGT | 0.191
4 | CCCCATGC | -0.165
5 | AGGTAAGA | 0.146
6 | CTAGCGAG | -0.182
7 | ATCAACAT | 0.275
8 | CCAGTCCC | -0.286
9 | TGCCTCCA | -0.325
10 | CAGCGTGC | -0.0501
11 | ATTTTCAC | 0.159
12 | AACCAATG | 0.106
13 | AATTATAG | 0.193
14 | GCGTATGA | 0.265
15 | AAGCCAAC | -0.0536
16 | ACAGGAAT | -0.0899
17 | GCGGCTAA | 0.128
18 | GACCAGGA | -0.292
19 | TGGGTGAA | 0.223
20 | CACCTGAG | -0.125
21 | CGAATATC | 0.0376
22 | AGGATAAG | -0.198
23 | TTCATCAA | 0.151
24 | TATTCTAA | 0.161

Row | Sequence | PBM E-score
25 | TAGCATGA | 0.134
26 | CGATCGAC | 0.0634
27 | ATTCAATA | 0.246
28 | GAATGACC | 0.0547
29 | ACGCCTAC | -0.167
30 | AATAGTTA | 0.16
31 | CCTTCCGC | -0.259
32 | CCTCCAAG | -0.133
33 | ACCGTTAT | 0.0799
34 | ACTCATCA | 0.00088
35 | AATCGATA | 0.113
36 | AGGCACCA | 0.149
37 | AGAGCCCG | -0.132
38 | ATTAACAA | 0.3
39 | GAACACCA | -0.0599
40 | TCGATAGA | -0.019
41 | TCGTTAAA | 0.062
42 | CACATCTC | 0.0868
43 | TCATCAAA | 0.248
44 | ACCCATCC | -0.143
45 | GAGCAATA | -0.133
46 | AGCACTTC | 0.0406
47 | AAGTGGGG | -0.248
48 | CATTAGTA | 0.143

Row | Sequence | PBM E-score
49 | CACGACGA | -0.0627
50 | ATCCGTTC | 0.0694
51 | AACGGTGA | 0.0858
52 | AATACAAT | 0.222
53 | CAAAACGA | 0.0891
54 | ATGAGATC | 0.157
55 | CAAATTAA | 0.224
56 | AAGTGGAG | -0.052
57 | TAAACAGA | 0.0948
58 | ATCACCTA | 0.0446
59 | CTCAAGCA | -0.0615
60 | AATCATGC | 0.0631
61 | CATTCTGC | 0.0305
62 | GAGGATCC | -0.162
63 | GTCTCGTA | -0.0486
64 | ACACATGC | -0.0255
65 | AACTCAGA | 0.0684
66 | AAAATGCA | -0.113
67 | CCTTTCCG | -0.122
68 | CTTCACGC | 0.114
69 | CACAGTGC | -0.024
70 | ATCCACTA | -0.0271
71 | CTCCCGAA | -0.122
72 | AGCAGTAT | -0.0639

Row | Sequence | PBM E-score
73 | GGGGAGAC | -0.368
74 | AACGTATT | 0.197
75 | CAGCTAAA | 0.0189
76 | CAACATGA | 0.175
77 | GCCTTTCC | 0.123
78 | GCATATCA | 0.133
79 | GCGTTAAA | -0.0116
80 | AAACCAAT | 0.135
81 | GGAAACCC | -0.147
82 | CTTAAAGC | -0.00117
83 | CCACTGGA | -0.0966
84 | ATCCTGAG | -0.00052
85 | ATGTGCCA | -0.0277
86 | CCTATCCC | -0.00694
87 | AATTACAG | 0.15
88 | AAATTTTA | 0.244
89 | GCGCCACA | 0.0597
90 | AGACGCCC | -0.114
91 | CCAAAATC | 0.0704
92 | AACGTGAT | 0.122
93 | CCGATTGA | 6e-05
94 | CCATGGCG | 0.102
